According to PubChem BioAssay AID1508624 (National Center for Advancing Translational Sciences (NCATS), 2021):
The whole screen tested about 48,000 compounds, of which about 120 (0.25%) were called active. Not shown: some 4% with an inconclusive outcome. Calls come from the whole dose curve; as a rule, active = well fitted activation curve with a large enough effect; inconclusive = small, poorly fitted or top-dose-only effect, or another doubt; inactive = no such curve, though single readings can be large or run the other way. Some of the results follow.

Assay: Primary qHTS for Identification of Small Molecule Activators of Huntingtin-Antisense Promoter Activity; note: nearly all actives have a fitted effect of over 55% in size
Conditions: HEK293 HTT-AS promoter firefly luciferase reporter (activity 0% = vehicle and -100% = no light), 24 h; series mostly up to 57.5 µM; activity change, positive = activation: at the top concentration
Procedure, shortened: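 HEK293 cells carrying firefly luciferase reporters were seeded at 2,500 per well in Opti-MEM and cultured for 24 h. They were then treated with compounds at up to 57.5 uM final for 24 h at 37 degrees C before Dual-Glo luminescence readout.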

Activity change, positive = activation, inactive:
COc1ccccc1CNC(=O)c1ccc(Nc2nc3ccccc3n3nnnc23)cc1 -1.2%
CCOc1ccc(/C=C/c2nc3ccccc3n2S(=O)(=O)c2cccc(Cl)c2)cc1 -55%
CCc1ccccc1-n1c2c(cc(-c3nc(-c4ccc(Cl)cc4)cs3)c1=O)C(=O)CC(C)(C)C2 -17%
COc1ccc(Cc2nc3ccc(C(=O)NCCc4ccccc4)cc3o2)cc1 -37.3%
CCOC(=O)c1c(C)[nH]c(C)c1S(=O)(=O)N1CCN(c2ccc(Cl)cc2)CC1 -21.8%
CC(=O)N1c2ccc(S(=O)(=O)NCC3CCC(C(=O)Nc4ccc(F)cc4)CC3)cc2CC1C (stereo not drawn) -32.6%
O=C(COc1ccc(F)cc1)NC1CC(=O)N(c2ccc3c(c2)OCCO3)C1 (stereo not drawn) -9.6%
COc1cccc(NC(=O)C2CCN(c3cc(C)nc4c(-c5ccc(Cl)cc5)c(C)nn34)CC2)c1 -17.5%
Cc1ccc(-c2nn3c(=O)cc(CN4CCN(S(=O)(=O)c5ccc(Cl)cc5)CC4)nc3s2)cc1 -13.2%
COc1ccc(CNC(=O)c2ccc3c(c2)CCN3S(=O)(=O)c2ccc(Cl)cc2)cc1 -14.5%
COC[C@@H](c1ccc(C(F)(F)F)cc1)N1CCN(C2(C)CCN(C(=O)c3c(C)ncnc3C)CC2)C[C@H]1C -16.6%
CCOc1ccc(OCC)c(NS(=O)(=O)c2ccc3[nH]c(=O)ccc3c2)c1 -14%
CC(=O)Nc1ccc(NC(=O)Cn2c(=O)ccc3cc(S(=O)(=O)N4CCC(C)CC4)ccc32)cc1 -12.8%
CC(NC(=O)C1=Cc2ccccc2OC1)c1ccccc1 (stereo not drawn) -11.8%
COc1cc2nc(SCC(=O)Nc3cccc(C)c3)n3nc(CCn4c(C)nc5ccccc54)nc3c2cc1OC -1.2%
Cn1c(=O)cc(OCC(=O)N2CCN(c3ccc(F)cc3)CC2)c2ccccc21 -8.31%
CCOc1ccccc1Nc1ncnc2c1c(-c1ccccc1)cn2-c1ccc(OC)cc1 -16.2%
CCOCN(C(=O)Cn1c(CC(C)C)nc2ccccc21)c1c(C)cccc1CC -25.4%
CC(C)c1ccc(NC(=O)C(NS(=O)(=O)c2ccc3c(c2)CCC(=O)N3)c2ccccc2)cc1 (stereo not drawn) -7.84%
COc1cc(OC)cc(-c2cc3nc(C)c(CCC(=O)Nc4ccc(F)c(Cl)c4)c(C)n3n2)c1 -82.6%
Cc1c(Cl)cccc1NC(=O)C(C)N(c1ccccc1)S(C)(=O)=O (stereo not drawn) -12.5%
Cc1ccc(-c2cn3cccnc3n2)cc1NC(=O)Cc1ccccc1 -0.686%
O=S(=O)(c1ccccc1)c1nc(-c2ccccc2)oc1N1CCN(c2cccc(Cl)c2)CC1 -16.1%
O=C(CSCc1cnn(-c2ccccc2)c1-n1cccc1)NCc1ccccc1Br -29.2%
CCc1ccc(NC(=O)COCc2cc(-c3ccc(F)cc3)on2)cc1 2.45%
CC(=O)Nc1ccc(S(=O)(=O)N(Cc2ccccc2)Cc2ccccc2)cc1 -29.3%
CCOc1ccccc1-c1nc(C(N)=O)c2c(n1)n(-c1ccc3c(c1)OCO3)c(=O)n2C -8.88%
C=Cc1ccc(Cn2c(=O)n(CC3CCC(C(=O)NC(C)C)CC3)c(=O)c3sccc32)cc1 (stereo not drawn) -15.7%
O=C(NCc1ccco1)c1ccc2c(c1)N(Cc1ccccc1F)C(=O)c1ccccc1S2(=O)=O -21.3%
CCn1c(=O)cc(SCC(=O)NCc2ccc(C)cc2)c2ccccc21 21.7%
CCCCNC(=O)c1ccc2c(c1)NC(=O)C(CS(=O)(=O)Cc1ccc(F)cc1Cl)N2 (stereo not drawn) -20.2%
COc1cccc(-c2ccc3c(N)c(C(=O)Nc4ccccc4C)sc3n2)c1 -6.87%
CCCC(=O)Nc1ccc2nc(SCc3ccc(C)cc3)sc2c1 -12.5%
Nc1ccc2oc(Cc3ccc(Cl)cc3)nc2c1 -11.1%
COc1ccc(C)cc1NC(=O)Cc1c(C(=O)O)c(C)cn1C -14.6%
CCOc1ccc(NC(=O)CN(C)S(=O)(=O)c2ccc3[nH]c4c(c3c2)CCCC4)cc1 -31.6%
COc1ccc(C(=O)N2CCN(c3nc4c(C)c(Cl)ccc4s3)CC2)c(OC)c1 -30.4%
CCCCNc1nc2c(c(=O)n(Cc3ccccc3)c(=O)n2C)n1C -5.85%
Cc1ccc(Cl)cc1N1CCN(C(=O)C2CCCN(Cc3nc(-c4cccc(Cl)c4)oc3C)C2)CC1 (stereo not drawn) -46.1%
COc1ccc(N(C)C(=O)c2cc3c(s2)-c2ccccc2OC3)cc1 -7.39%
Cc1ccc(NC(=O)C2CCCN(S(=O)(=O)c3ccc4c(c3)CCCC(=O)N4)C2)cc1Cl (stereo not drawn) -36.8%
O=C(c1ccc(Cl)cc1)c1cn(Cc2ccccc2)c2cc3c(cc2c1=O)OCCO3 -16.5%
Cc1ccc(NC(=O)Cn2c(=O)ccc3cc(S(=O)(=O)N4CCCC4)ccc32)cc1N(C)C -33.5%
Cc1cc(C(=O)Nc2cccc(C)c2C)c2c(C)nn(-c3cccc(F)c3)c2n1 -8.09%
COc1cc(OC)c(OC)cc1/C=C/c1nc2ccccc2c(=O)n1-c1ccc(Br)c(C)c1 -20.6%
O=C(NCc1ccc(Cl)cc1)c1ccc2c(c1)N(Cc1ccccc1F)C(=O)c1ccccc1S2=O (stereo not drawn) -20.7%
CCc1ccc(CNC(=O)c2ccc(CS(=O)(=O)Cc3cccc(C)c3)o2)cc1 -29.3%
COc1ccc(CCNC(=O)C(=O)NCC(c2cccnc2)N2CCN(c3ccccc3)CC2)cc1 (stereo not drawn) -63.7%
CCC(C(=O)NCCc1ccc(Cl)cc1)n1ccc2cc(S(=O)(=O)N3CCCCC3)ccc21 (stereo not drawn) -31.3%
Cc1cccc(C)c1NC(=O)CN1C(=O)c2ccccc2Sc2ncccc21 -8.35%
COC(=O)c1cc2sc(C)cc2n1CC(=O)Nc1ccc(C)cc1Cl -11%
COc1ccc(-c2noc(CSc3nnc(-c4ccccc4)n3C)n2)cc1 -6.65%
CCCOC(=O)c1ccc(Nc2c(C(=O)OCC)cnc3c(C)cc(Cl)cc23)cc1 -20.9%
CC(C)OCCCNC(=O)c1nn(C)c2c1CSc1ccccc1-2 -5.37%
CC(=O)N1CCN(c2ccc(OC[C@H]3CO[C@](Cn4ccnc4)(c4ccc(Cl)cc4Cl)O3)cc2)CC1 -31%
COc1ccc(C)cc1NC(=O)CN1CCN(S(=O)(=O)c2ccc(Br)cc2)CC1 -22.5%
Cc1cccc(-n2cnc3cc(C(=O)NC4CCCCCC4)ccc32)c1 -36.1%
CC(C)CCn1c(=O)c2sccc2n2c(CCCC(=O)NC(C)c3ccccc3)nnc12 (stereo not drawn) 2.46%
CC(=O)c1cccc(NC(=O)CSc2nc3c(=O)n(C)c(=O)n(C)c3n2C)c1 11.8%
Cc1cccc(OCC(=O)Nc2ccccc2C(=O)OCc2cc(=O)n3nc(C4CC4)sc3n2)c1 16.8%
Cc1ccc(CCNC(=O)c2cc3c(=O)n(C)c4ccccc4c3n2C)cc1 -8.57%
CC(=O)[C@H]1CC[C@H]2[C@@H]3CCC4=CC(=O)CC[C@]4(C)[C@H]3CC[C@]12C -34.1%
Cc1cccc(N2CCN(c3nc4ccccc4c4nc(-c5cccnc5)nn34)CC2)c1C -9.37%
CCc1cccc(N2C(=O)N(Cc3c(F)cccc3Cl)c3ccccc3S2(=O)=O)c1 -13%
CCn1cc(C(=O)Nc2ccc(C(C)C)cc2)c2cc(OC)c(OC)cc2c1=O -41.6%
CCOC(=O)c1ccc(NC(=O)c2c(NCc3cc(OC)ccc3OC)sc3c2CCC3)cc1 5.68%
CCc1cnc2c(c1SCCC(C)C)c(=O)n(C)c(=O)n2C -36.5%
Cc1cccc(Oc2ccc(NC(=O)CCC(=O)OCC(=O)c3ccc(Br)cc3)cc2)c1C -12.9%
COc1cccc(C(C(=O)NCc2ccccc2)N(C(=O)Cn2nnc3ccccc32)c2cccc(C(C)=O)c2)c1 (stereo not drawn) -11.1%
Cc1ccc(C)c(CSc2cn(CCNC(=O)c3ccccc3F)c3ccccc23)c1 -40.9%
COc1cc(C2c3c(-c4ccccc4O)n[nH]c3C(=O)N2CCO)ccc1OCC(C)C (stereo not drawn) -16.1%
COc1ccc(Cc2c(C)nn(-c3nc(C)c(C(=O)Nc4ccc(C)cc4C)s3)c2C)cc1 -15.4%
COc1ccc(NC(=O)c2oc3ccc(S(=O)(=O)N4CCC5(CC4)OCCO5)cc3c2C)cc1Cl -46.5%
COc1ccc(NC(=O)C2CCC(CNS(=O)(=O)c3cccs3)CC2)cc1OC (stereo not drawn) -9.89%
Clc1ccccc1-c1nnc(-c2ccccc2CNc2ccccc2)o1 17.1%
Cc1ccccc1CSCCNC(=O)CN(c1ccccc1)S(=O)(=O)N(C)C -28.6%
COc1ccccc1CNC(=O)c1cc2ccc3ccc(C)[nH]c3c2n1 -8.33%
CCN1CCc2c(sc(-n3cccc3)c2C(C)NC(=O)Nc2ccccc2C)C1 (stereo not drawn) -6.26%
Cc1cccc(CC(=O)Nc2cccc(-c3nc4cccnc4s3)c2)c1 19.5%
OC(CN1CCC(Cc2ccc(F)cc2)CC1)c1ccc(Cl)cc1 (stereo not drawn)
Cc1ccc(C)c(N2CCN(S(=O)(=O)c3csc(C(N)=O)c3)CC2)c1 -47.9%
CCCN1CCN(CCCNC(=O)Cn2c(-c3cccs3)cc3cc(Cl)ccc32)CC1 -26.6%
Cc1ccc(CNC(=O)CSC2=Nc3ccccc3C3=NC(C)C(=O)N23)cc1 (stereo not drawn) -3.54%
Cc1ccc2occ(CC(=O)N3CCN(c4cccc(Cl)c4)CC3)c2c1 -29.8%
CC(=O)Nc1cccc(NC(=O)C(=O)NCCc2csc3nc(-c4ccccc4F)nn23)c1 -0.841%
CCOC(=O)c1ccccc1NC(=O)c1nn(C)c2c1COc1ccccc1-2 -9%
CC(C)CCNC(=O)c1cn(C)c2ccc(S(=O)(=O)N3CCOCC3)cc2c1=O -11.2%
COc1ccccc1N1CCN(S(=O)(=O)c2ccc(-c3cnc(C4CC4)o3)cc2)CC1 -4.64%
CCc1cccc(NC(=O)CCS(=O)(=O)c2cc3c4c(c2)CCN4C(=O)CC3)c1 -2.39%
Cc1c(Cl)cccc1-n1nc(C)c2c(C)cc(=O)n(CC(=O)NCc3ccccc3)c21 -18.3%
COc1cc2c(cc1OC)C(COc1ccccc1OC)N(C(=O)c1ccccc1OC)CC2 (stereo not drawn) -14.3%
Cc1cc(C)c(NC(=O)Cn2c(=O)n(Cc3ccccc3)c(=O)c3c(C)c(C(=O)N(C)C)sc32)c(C)c1 -14.6%
COc1cc2c(=O)c(S(=O)(=O)c3ccccc3)cn(CC(=O)Nc3ccccc3C)c2cc1OC -2.63%
